Hit rate of the full screen: of about 310,000 compounds, about 2,200 (0.71%) showed an effect of 50% or more. The effect is printed as a negative number. The list shows a part of the results.

In the test the target is human ether-à-go-go-related gene (hERG) potassium channel (human, UniProt Q12809). In words: primary screen, population patch clamp on CHO cells stably expressing hERG.
Chain of human ether-à-go-go-related gene (hERG) potassium channel (Q12809 whole entry, looked up): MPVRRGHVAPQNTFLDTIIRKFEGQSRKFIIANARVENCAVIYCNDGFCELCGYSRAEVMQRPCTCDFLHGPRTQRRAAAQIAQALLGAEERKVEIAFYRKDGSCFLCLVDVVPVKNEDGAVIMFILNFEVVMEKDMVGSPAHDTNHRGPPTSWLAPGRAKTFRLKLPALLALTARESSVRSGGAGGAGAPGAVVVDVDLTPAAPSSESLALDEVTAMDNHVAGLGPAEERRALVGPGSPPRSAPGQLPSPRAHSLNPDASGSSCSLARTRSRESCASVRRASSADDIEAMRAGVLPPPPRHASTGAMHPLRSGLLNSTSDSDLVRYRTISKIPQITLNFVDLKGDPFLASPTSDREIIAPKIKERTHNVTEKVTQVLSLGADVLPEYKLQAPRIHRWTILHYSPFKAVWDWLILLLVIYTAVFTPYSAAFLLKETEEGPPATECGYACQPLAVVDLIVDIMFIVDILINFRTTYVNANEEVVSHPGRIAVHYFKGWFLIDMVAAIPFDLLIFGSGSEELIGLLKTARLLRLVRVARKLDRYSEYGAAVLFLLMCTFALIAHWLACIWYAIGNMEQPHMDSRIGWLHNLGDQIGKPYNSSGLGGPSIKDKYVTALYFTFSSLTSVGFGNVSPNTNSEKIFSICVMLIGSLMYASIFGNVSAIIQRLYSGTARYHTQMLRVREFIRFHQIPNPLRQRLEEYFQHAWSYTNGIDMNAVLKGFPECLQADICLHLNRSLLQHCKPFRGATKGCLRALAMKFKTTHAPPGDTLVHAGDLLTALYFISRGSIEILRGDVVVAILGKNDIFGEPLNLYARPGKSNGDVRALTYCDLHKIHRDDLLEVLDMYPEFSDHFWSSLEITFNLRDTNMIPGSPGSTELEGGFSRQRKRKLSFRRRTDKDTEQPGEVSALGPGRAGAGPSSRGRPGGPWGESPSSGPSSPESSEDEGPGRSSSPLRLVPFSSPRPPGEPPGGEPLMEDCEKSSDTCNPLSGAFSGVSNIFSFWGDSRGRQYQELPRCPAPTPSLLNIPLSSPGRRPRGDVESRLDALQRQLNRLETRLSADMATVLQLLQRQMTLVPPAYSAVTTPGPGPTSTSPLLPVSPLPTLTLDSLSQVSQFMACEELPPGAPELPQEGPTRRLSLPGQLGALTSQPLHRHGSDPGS
Consider `Cc1cc(Cl)ccc1NC(=O)COC(=O)c1cc([N+](=O)[O-])ccc1N1CCOCC1`, for which the “hERG current change (%, negative = inhibition) at 1uM” value was -17.5%. The result for `O=C(CSc1nnc(Nc2ccccc2)s1)NCc1ccco1` reads 1.01%; that for `Cc1nnc(SCc2nnc(-c3ccc(Cl)cc3)o2)n1-c1ccccc1`, -9.9%. The result for `N#Cc1ccc(COC(=O)c2cccnc2Cl)cc1` reads -18.1%; that for `CCC/C(O)=C1\C(=O)CC(c2ccccc2)CC1=NCCc1c(C)[nH]c2ccccc12` (stereo not drawn), -13.5%. `CCCCC(NC(C)=O)c1nc2ccccc2[nH]1` (stereo not drawn): the “hERG current change (%, negative = inhibition) at 1uM” value was found to be 18.1%. `O=C(Nc1cccc2cccnc12)c1ccc(Cl)cc1`: the “hERG current change (%, negative = inhibition) at 1uM” value is recorded as 11.8%.

As to `Cc1cccc(C(=O)N2CCN(C(=O)c3cccc(C)c3)C(C)C2)c1` (stereo not drawn), the “hERG current change (%, negative = inhibition) at 1uM” value came out at 9.14%. `Cn1c(Cl)c(/C=N/OC(=O)C2CC2)c2ccccc21`: the “hERG current change (%, negative = inhibition) at 1uM” value stood at 12.4%. The result for `Cc1cc(C(=O)Nn2cnnc2)cs1` reads 7.74%. For `COC(=NC(C)C)NC(C)C` the value was 12%; for `O=C(NCC1CCCC(CNC(=O)Nc2ccc(Cl)cn2)C1)Nc1ccc(Cl)cn1` (stereo not drawn), 7.34%. Consider `CC(C)(C#N)Nc1ccccc1`, for which the “hERG current change (%, negative = inhibition) at 1uM” value was determined as 12.9%. The result for `COC(=O)c1nccc2c1[nH]c1ccccc12` reads 12.4%; that for `COC(=O)CN(c1c(C)cccc1C)S(C)(=O)=O`, 0.347%; that for `O=C(COC(=O)COc1ccc(Cl)cc1Br)NC1CCCCCC1`, 3.14%. For `CC1(C)C2CCC1(C)C1(C2)NC(=O)c2ccccc2O1` (stereo not drawn) the value was 1.79%; for `Cc1cc(Cl)c(OCCCNCc2ccccc2)c(Br)c1.O=C(O)C(=O)O`, -5.37%. The result for `CCOC(=O)C1C(=O)CC(C)(O)C(C(=O)OCC)C1c1ccc(OC)cc1` (stereo not drawn) reads -0.912%. On to `O=C1CCCC2=C1Sc1ccc(Cl)cc1N2`, for which the “hERG current change (%, negative = inhibition) at 1uM” value was 11.7%. The result for `COc1ccc2c(c1)CCc1c(C(=O)Nc3cc(C)n(Cc4ccc(Cl)cc4)n3)noc1-2` reads -13.9%. The result for `O=C(COC(=O)/C=C/c1ccc(C(F)(F)F)cc1)NCC1CCCO1` (stereo not drawn) reads 16.4%; that for `N#Cc1ccc(C(=O)Nc2nnc(-c3ccccn3)o2)cc1`, 8.13%. `CCOC(=O)c1oc2ccccc2c1CN1CCN(C)CC1.Cl`: the “hERG current change (%, negative = inhibition) at 1uM” value is reported as -50.2%.

As to `COc1cc(NC(=O)COC(=O)/C=C/c2ccc(Cl)cc2Cl)cc(OC)c1`, the “hERG current change (%, negative = inhibition) at 1uM” value was 10.4%. The result for `COc1cccc(-n2nnnc2SCC(=O)Nc2ccccc2OC)c1` reads 1.56%; that for `CCOC(=O)N1CCN(C(=O)c2oc3ccc(S(=O)(=O)N4CCCCCC4)cc3c2C)CC1`, -2%; that for `Cc1ccc(-n2c(SCC(=O)Nc3ccc4cn[nH]c4c3)nnc2-c2ccco2)cc1`, 2.41%. The result for `Cc1cc(=O)oc2cc(OCC(=O)OCC(=O)N3CCc4ccccc43)ccc12` reads 2.83%; that for `O=C(COC(=O)c1cc2c(s1)CCCCC2)NC1CCS(=O)(=O)C1` (stereo not drawn), 14.2%. For `CCOc1ccccc1C(C(=O)NC1CCCCC1)N(C(=O)c1csnn1)C1CC1` (stereo not drawn) the value was -4.46%; for `CCOC(=O)C1(Cc2ccccc2C)CCCN(C(=O)c2ccnn2C)C1` (stereo not drawn), 7.07%; for `COc1ccc(N=Cc2c(O)n(-c3cccc(C)n3)c(=O)c3ccccc23)cc1`, 0.0617%. Turning to `CCc1n[nH]c(=S)n1/N=C/c1ccccn1`, the “hERG current change (%, negative = inhibition) at 1uM” value is on record as 11.1%. In the case of `Cc1c(-c2ccc(/C=N/NC(=O)C(=O)Nc3ccccc3F)o2)cccc1[N+](=O)[O-]`, the “hERG current change (%, negative = inhibition) at 1uM” value was determined as 13.7%. The result for `CCS(=O)(=O)n1nc(-c2ccccc2)nc1SCc1ccccc1` reads 12.7%; that for `O=C(c1ccco1)N1CCCC(Nc2ccc3c(c2)OCCO3)C1` (stereo not drawn), 12.6%; that for `CC(C)(C)c1ccc(S(=O)(=O)C(C)(C)C)cc1`, 11.8%.

Regarding `COc1ccc(/C=N/NC(=O)c2ccc(N(C)S(=O)(=O)c3ccccc3)cc2)cc1OC`, the “hERG current change (%, negative = inhibition) at 1uM” value stood at 18%. The result for `CCCC(=O)Nc1cc(OC)c(C(=O)OC)cc1Cl` reads 10.2%.

As for `COC(=O)c1cc(OC)c(OC)c(OC)c1[N+](=O)[O-]`, the “hERG current change (%, negative = inhibition) at 1uM” value is given as -5.53%. On to `COc1ccccc1NS(=O)(=O)c1cccs1`, for which the “hERG current change (%, negative = inhibition) at 1uM” value is 7.98%. For `COc1ccc(/C=N/N=C2/NC(=O)CC(C(=O)O)S2)cc1` (stereo not drawn) the value was 13.7%; for `COc1ccc(CCNC(=O)C2CCN(S(=O)(=O)c3ccc(-n4cnnn4)cc3)CC2)cc1OC`, -0.826%; for `Cc1ccccc1-c1cc(C(=O)Nc2sc(C(=O)OC(C)C)c(C)c2C#N)c2ccccc2n1`, 15.6%.

For the origin of these results see publication PMC4336329 (PLoS ONE, 2015).
